{"source": "the supplement of paper PMC8728848", "binders": {"B1": {"name": "MIC1 (Neospora caninum), Q8WRS0 (protein)", "chain": "AGAKTYGEASQPSASARSLQGALDTWCQEVFKKLCDDGYSKMCIPANQVVARQGLGRKDQQKLVWRCYDSAAFLAEGDENNVLSCVDDCGVSIPCPGGVDRDNSTHATRHDELSQLIKEGVVRYCSGFQAAANSYCNKRYPGTVARKSKGFGHKEPVKWRCYKPESLLFSVFSECVSNCGTTWSCPGGRLGTATNLDKKHFTDESGILQALTSVPKACPVGLVCLPRDQNPPACLDDNGNVPE"}}, "assay_in_all_cases": "glycan array binding signal (z-score within array); higher = stronger binding", "settings_in_all_cases": "glycan notation: IUPAC condensed, linker removed", "key": {"[1]": {"molecular_target": "Neu5Ac(a2-3)Gal(b1-4)[Fuc(a1-3)]GlcNAc(b1-3)Gal(b1-4)[Fuc(a1-3)]GlcNAc(b1-3)Gal(b1-4)Glc", "summary_of_the_method": "(§1)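 The binding signal is a Z-score computed within each array and averaged over linkers. Arrays of the same protein sequence at different concentrations or buffers were also averaged together. Data originate from 3228 arrays in the Consortium for Functional Glycomics database, kept only where the protein sequence was available.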"}, "[2]": {"molecular_target": "Neu5Ac(a2-3)Gal(b1-4)[Fuc(a1-3)]GlcNAc6S(b1-3)Gal(b1-4)Glc", "summary_of_the_method": "as §1"}, "[3]": {"molecular_target": "Neu5Ac(a2-3)Gal6S(b1-4)[Fuc(a1-3)]GlcNAc(b1-3)Gal(b1-4)Glc", "summary_of_the_method": "as §1"}, "[4]": {"molecular_target": "Neu5Ac(a2-3)Gal6S(b1-4)[Fuc(a1-3)]GlcNAc6S(b1-3)Gal(b1-4)Glc", "summary_of_the_method": "as §1"}, "[5]": {"molecular_target": "Neu5Ac(a2-3)[GalNAc(b1-4)]Gal(b1-3)GalNAc(b1-4)[Neu5Ac(a2-3)]Gal(b1-4)Glc", "summary_of_the_method": "as §1"}, "[6]": {"molecular_target": "Neu5Ac(a2-3)[GalNAc(b1-4)]Gal(b1-4)Glc", "summary_of_the_method": "as §1"}, "[7]": {"molecular_target": "Neu5Ac(a2-6)Gal(b1-3)GlcNAc(b1-3)[Fuc(a1-3)[Gal(b1-4)]GlcNAc(b1-6)]Gal(b1-4)Glc", "summary_of_the_method": "as §1"}, "[8]": {"molecular_target": "Neu5Ac(a2-6)Gal(b1-3)GlcNAc(b1-3)[Gal(b1-4)GlcNAc(b1-6)]Gal(b1-4)Glc", "summary_of_the_method": "as §1"}, "Neu5Ac(a2-6)Gal(b1-4)Glc": {"molecular_target": "Neu5Ac(a2-6)Gal(b1-4)Glc", "summary_of_the_method": "as §1"}, "[9]": {"molecular_target": "Neu5Ac(a2-6)Gal(b1-4)GlcNAc", "summary_of_the_method": "as §1"}, "[10]": {"molecular_target": "Neu5Ac(a2-6)Gal(b1-4)GlcNAc(b1-2)Man(a1-3)[Neu5Ac(a2-6)Gal(b1-4)GlcNAc(b1-2)Man(a1-6)]Man(b1-4)GlcNAc(b1-4)GlcNAc", "summary_of_the_method": "as §1"}, "[11]": {"molecular_target": "Neu5Ac(a2-6)Gal(b1-4)GlcNAc(b1-2)[Neu5Ac(a2-3)Gal(b1-4)GlcNAc(b1-4)]Man(a1-3)[Neu5Ac(a2-3)Gal(b1-4)GlcNAc(b1-2)Man(a1-6)]Man(b1-4)GlcNAc(b1-4)GlcNAc", "summary_of_the_method": "as §1"}, "[12]": {"molecular_target": "Neu5Ac(a2-6)Gal(b1-4)GlcNAc(b1-3)Gal(b1-4)Glc", "summary_of_the_method": "as §1"}, "[13]": {"molecular_target": "Neu5Ac(a2-6)Gal(b1-4)GlcNAc(b1-3)Gal(b1-4)[Fuc(a1-3)]Glc", "summary_of_the_method": "as §1"}, "[14]": {"molecular_target": "Neu5Ac(a2-6)Gal(b1-4)GlcNAc(b1-3)[Neu5Ac(a2-6)Gal(b1-4)GlcNAc(b1-6)]Gal(b1-4)Glc", "summary_of_the_method": "as §1"}, "[15]": {"molecular_target": "Neu5Ac(a2-6)Gal(b1-4)GlcNAc(b1-6)[Gal(b1-3)GlcNAc(b1-3)]Gal(b1-4)Glc", "summary_of_the_method": "as §1"}, "[16]": {"molecular_target": "Neu5Ac(a2-6)Gal(b1-4)[Fuc(a1-3)]GlcNAc(b1-3)Gal(b1-4)Glc", "summary_of_the_method": "as §1"}, "Neu5Ac(a2-8)Neu5Ac": {"molecular_target": "Neu5Ac(a2-8)Neu5Ac", "summary_of_the_method": "as §1"}, "[17]": {"molecular_target": "Neu5Ac(a2-8)Neu5Ac(a2-3)Gal(b1-3)GalNAc(b1-4)[Neu5Ac(a2-3)]Gal(b1-4)Glc", "summary_of_the_method": "as §1"}, "[18]": {"molecular_target": "Neu5Ac(a2-8)Neu5Ac(a2-3)Gal(b1-3)GalNAc(b1-4)[Neu5Ac(a2-8)Neu5Ac(a2-3)]Gal(b1-4)Glc", "summary_of_the_method": "as §1"}, "[19]": {"molecular_target": "Neu5Ac(a2-8)Neu5Ac(a2-3)Gal(b1-4)Glc", "summary_of_the_method": "as §1"}, "[20]": {"molecular_target": "Neu5Ac(a2-8)Neu5Ac(a2-3)[Gal(b1-3)GalNAc(b1-4)]Gal(b1-4)Glc", "summary_of_the_method": "as §1"}, "[21]": {"molecular_target": "Neu5Ac(a2-8)Neu5Ac(a2-3)[GalNAc(b1-4)]Gal(b1-4)Glc", "summary_of_the_method": "as §1"}, "[22]": {"molecular_target": "Neu5Ac(a2-8)Neu5Ac(a2-8)Neu5Ac", "summary_of_the_method": "as §1"}, "[23]": {"molecular_target": "Neu5Ac(a2-8)Neu5Ac(a2-8)Neu5Ac(a2-8)Neu5Ac", "summary_of_the_method": "as §1"}, "[24]": {"molecular_target": "Neu5Ac(a2-8)Neu5Ac(a2-8)Neu5Ac(a2-8)Neu5Ac(a2-8)Neu5Ac", "summary_of_the_method": "as §1"}, "[25]": {"molecular_target": "Neu5Ac(a2-8)Neu5Ac(a2-8)Neu5Ac(a2-8)Neu5Ac(a2-8)Neu5Ac(a2-8)Neu5Ac", "summary_of_the_method": "as §1"}, "[26]": {"molecular_target": "Neu5Ac(a2-8)Neu5Ac(a2-8)Neu5Ac(a2-8)Neu5Ac(a2-8)Neu5Ac(a2-8)Neu5Ac(a2-8)Neu5Ac", "summary_of_the_method": "as §1"}, "[27]": {"molecular_target": "Neu5Ac(a2-8)Neu5Ac(a2-8)Neu5Ac(a2-8)Neu5Ac(a2-8)Neu5Ac(a2-8)Neu5Ac(a2-8)Neu5Ac(a2-8)Neu5Ac", "summary_of_the_method": "as §1"}, "[28]": {"molecular_target": "Neu5Ac(a2-8)Neu5Ac(a2-8)Neu5Ac(a2-8)Neu5Ac(a2-8)Neu5Ac(a2-8)Neu5Ac(a2-8)Neu5Ac(a2-8)Neu5Ac(a2-8)Neu5Ac", "summary_of_the_method": "as §1"}, "[29]": {"molecular_target": "Neu5Ac(a2-8)Neu5Ac(a2-8)Neu5Ac(a2-8)Neu5Ac(a2-8)Neu5Ac(a2-8)Neu5Ac(a2-8)Neu5Ac(a2-8)Neu5Ac(a2-8)Neu5Ac(a2-8)Neu5Ac", "summary_of_the_method": "as §1"}, "[30]": {"molecular_target": "Neu5Ac(a2-8)Neu5Ac(a2-8)Neu5Ac(a2-8)Neu5Ac(a2-8)Neu5Ac(a2-8)Neu5Ac(a2-8)Neu5Ac(a2-8)Neu5Ac(a2-8)Neu5Ac(a2-8)Neu5Ac(a2-8)Neu5Ac", "summary_of_the_method": "as §1"}, "[31]": {"molecular_target": "Neu5Ac(a2-9)Neu5Ac(a2-3)Gal(b1-4)Glc", "summary_of_the_method": "as §1"}, "Neu5Ac(b2-3)Gal(b1-4)Glc": {"molecular_target": "Neu5Ac(b2-3)Gal(b1-4)Glc", "summary_of_the_method": "as §1"}, "Neu5Ac(b2-6)Gal(b1-4)Glc": {"molecular_target": "Neu5Ac(b2-6)Gal(b1-4)Glc", "summary_of_the_method": "as §1"}, "[32]": {"molecular_target": "Neu5Ac9Ac(a2-6)Gal(b1-4)GlcNAc", "summary_of_the_method": "as §1"}, "Neu5Gc(a2-3)Gal(b1-4)Glc": {"molecular_target": "Neu5Gc(a2-3)Gal(b1-4)Glc", "summary_of_the_method": "as §1"}}, "note": "Some of the results follow.", "data": [{"binder": "B1", "values": [{"measurement": "glycan array binding signal (z-score)", "setting": "[1]", "value": -0.024}, {"measurement": "glycan array binding signal (z-score)", "setting": "[2]", "value": 0.848}, {"measurement": "glycan array binding signal (z-score)", "setting": "[3]", "value": 6.08}, {"measurement": "glycan array binding signal (z-score)", "setting": "[4]", "value": 4.92}, {"measurement": "glycan array binding signal (z-score)", "setting": "[5]", "value": -0.415}, {"measurement": "glycan array binding signal (z-score)", "setting": "[6]", "value": 1.26}, {"measurement": "glycan array binding signal (z-score)", "setting": "[7]", "value": -0.441}, {"measurement": "glycan array binding signal (z-score)", "setting": "[8]", "value": -0.431}, {"measurement": "glycan array binding signal (z-score)", "setting": "Neu5Ac(a2-6)Gal(b1-4)Glc", "value": -0.41}, {"measurement": "glycan array binding signal (z-score)", "setting": "[9]", "value": -0.395}, {"measurement": "glycan array binding signal (z-score)", "setting": "[10]", "value": -0.397}, {"measurement": "glycan array binding signal (z-score)", "setting": "[11]", "value": -0.237}, {"measurement": "glycan array binding signal (z-score)", "setting": "[12]", "value": -0.387}, {"measurement": "glycan array binding signal (z-score)", "setting": "[13]", "value": -0.416}, {"measurement": "glycan array binding signal (z-score)", "setting": "[14]", "value": -0.403}, {"measurement": "glycan array binding signal (z-score)", "setting": "[15]", "value": -0.441}, {"measurement": "glycan array binding signal (z-score)", "setting": "[16]", "value": -0.441}, {"measurement": "glycan array binding signal (z-score)", "setting": "Neu5Ac(a2-8)Neu5Ac", "value": -0.441}, {"measurement": "glycan array binding signal (z-score)", "setting": "[17]", "value": -0.441}, {"measurement": "glycan array binding signal (z-score)", "setting": "[18]", "value": -0.441}, {"measurement": "glycan array binding signal (z-score)", "setting": "[19]", "value": -0.431}, {"measurement": "glycan array binding signal (z-score)", "setting": "[20]", "value": -0.441}, {"measurement": "glycan array binding signal (z-score)", "setting": "[21]", "value": -0.441}, {"measurement": "glycan array binding signal (z-score)", "setting": "[22]", "value": -0.438}, {"measurement": "glycan array binding signal (z-score)", "setting": "[23]", "value": 0.071}, {"measurement": "glycan array binding signal (z-score)", "setting": "[24]", "value": 1.47}, {"measurement": "glycan array binding signal (z-score)", "setting": "[25]", "value": 0.685}, {"measurement": "glycan array binding signal (z-score)", "setting": "[26]", "value": 0.538}, {"measurement": "glycan array binding signal (z-score)", "setting": "[27]", "value": -0.115}, {"measurement": "glycan array binding signal (z-score)", "setting": "[28]", "value": -0.166}, {"measurement": "glycan array binding signal (z-score)", "setting": "[29]", "value": -0.342}, {"measurement": "glycan array binding signal (z-score)", "setting": "[30]", "value": -0.291}, {"measurement": "glycan array binding signal (z-score)", "setting": "[31]", "value": -0.14}, {"measurement": "glycan array binding signal (z-score)", "setting": "Neu5Ac(b2-3)Gal(b1-4)Glc", "value": -0.441}, {"measurement": "glycan array binding signal (z-score)", "setting": "Neu5Ac(b2-6)Gal(b1-4)Glc", "value": -0.441}, {"measurement": "glycan array binding signal (z-score)", "setting": "[32]", "value": -0.428}, {"measurement": "glycan array binding signal (z-score)", "setting": "Neu5Gc(a2-3)Gal(b1-4)Glc", "value": -0.377}]}]}
